# The supplement of paper PMC4604168 (melanoma cell lines)
# The other results are listed elsewhere or left out. Repeats are few or missing, and single values can be far off.
# What was measured:
# Assay in all cases: cell count relative to DMSO control; melanoma cells; higher = more viable cells
# Settings in all cases: library dose: low library concentration; 72 h
# MZ2-MEL = tested on: MZ2-MEL
# MeWo = tested on: MeWo
# RPMI7951 = tested on: RPMI7951
# RVH-421 = tested on: RVH-421
# SkMel28 = tested on: SkMel28
# SkMel2 = tested on: SkMel2
# SkMel30 = tested on: SkMel30
# SkMel5 = tested on: SkMel5
# UACC257 = tested on: UACC257
# UACC62 = tested on: UACC62
# 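Also: cell number obtained by counting DAPI-stained nuclei in high-throughput microscope images with image analysis software, screen run in 1,536-well plates.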
Compound,cell count (MZ2-MEL) [%],cell count (MeWo) [%],cell count (RPMI7951) [%],cell count (RVH-421) [%],cell count (SkMel28) [%],cell count (SkMel2) [%],cell count (SkMel30) [%],cell count (SkMel5) [%],cell count (UACC257) [%],cell count (UACC62) [%]
"C[C@]1(O)C[C@@H](c2nc(-c3ccc4ccc(-c5ccccc5)nc4c3)c3c(N)nccn32)C1 + C/C(O)=C(\C#N)C(=O)Nc1cc(Br)ccc1Br [LFM-A13] (first compound 0.4 µM, partner dose 2 µM)",94.7,91.5,93.5,105,69.5,73.3,75.4,90.1,74,70.3
"N#CC[C@H](C1CCCC1)n1cc(-c2ncnc3[nH]ccc23)cn1 [ruxolitinib] + C/C(O)=C(\C#N)C(=O)Nc1cc(Br)ccc1Br [LFM-A13] (first compound 1 µM, partner dose 2 µM)",97,93.6,95.9,159,101,105,92.1,109,99,97.7
"CC(=O)O[C@@]12CO[C@@H]1C[C@H](O)[C@@]1(C)C(=O)[C@H](O)C3=C(C)[C@@H](OC(=O)[C@H](O)[C@@H](NC(=O)OC(C)(C)C)c4ccccc4)C[C@@](O)([C@@H](OC(=O)c4ccccc4)[C@H]21)C3(C)C [Docetaxel] + O=C(Oc1ccc([N+](=O)[O-])cc1)N1CCC(C(O)(c2ccc3c(c2)OCO3)c2ccc3c(c2)OCO3)CC1 [JZL184] (first compound 0.0001 µM, partner dose 1 µM)",46.7,37.9,32.6,75,39.1,40.3,37,83.5,37.7,38.8
"C=CCNC1=C2C[C@@H](C)C[C@H](OC)[C@H](O)[C@@H](C)/C=C(\C)[C@H](OC(N)=O)[C@@H](OC)/C=C\C=C(/C)C(=O)NC(=CC1=O)C2=O [Tanespimycin] + Cc1cc(SCc2sc(-c3ccc(C(F)(F)F)c(F)c3)nc2C)ccc1OCC(=O)O [GW0742] (first compound 0.002 µM, partner dose 2 µM)",106,96.6,84.7,92.3,90.8,110,91.2,95.6,114,89.7
"NC(=O)c1ccc(N(C(N)=O)c2c(F)cccc2F)nc1-c1ccc(F)cc1F + Cc1cc(SCc2sc(-c3ccc(C(F)(F)F)c(F)c3)nc2C)ccc1OCC(=O)O [GW0742] (first compound 0.4 µM, partner dose 2 µM)",107,101,98.8,111,100,105,119,95.9,86.3,90.2
"O=C(O)[C@@H]1[O][Sb](=[O])([O][Sb]2(=[O])[O][C@H]([C@H](O)CO)[C@H](O)[C@H](C(=O)O)[O]2)[O][C@H]([C@H](O)CO)[C@@H]1O (stereo not given in full) [stibogluconate] + Cc1cc(SCc2sc(-c3ccc(C(F)(F)F)c(F)c3)nc2C)ccc1OCC(=O)O [GW0742] (first compound 2 µM, partner dose 2 µM)",100,91.4,94.3,113,106,90.4,97.5,113,115,108
"O=c1[nH]nc(Sc2ncc([N+](=O)[O-])s2)n1-c1ccc2c(c1)OCCO2 + O=C(Oc1ccc([N+](=O)[O-])cc1)N1CCC(C(O)(c2ccc3c(c2)OCO3)c2ccc3c(c2)OCO3)CC1 [JZL184] (first compound 0.2 µM, partner dose 1 µM)",97.6,99.1,103,112,99.1,90.9,91.7,98.9,106,97.4
"Cc1ccc(Nc2nccc(N(C)c3ccc4c(C)n(C)nc4c3)n2)cc1S(N)(=O)=O [Pazopanib] + C/C(O)=C(\C#N)C(=O)Nc1cc(Br)ccc1Br [LFM-A13] (first compound 0.4 µM, partner dose 2 µM)",80,111,72.8,103,85.1,100,82.4,114,80.5,94.2
"CS(=O)(=O)CCNCc1ccc(-c2ccc3ncnc(Nc4ccc(OCc5cccc(F)c5)c(Cl)c4)c3c2)o1 [lapatinib] + Cc1cc(SCc2sc(-c3ccc(C(F)(F)F)c(F)c3)nc2C)ccc1OCC(=O)O [GW0742] (first compound 0.8 µM, partner dose 2 µM)",96.9,107,115,98.9,99.5,94.8,111,105,95.2,91.5
"CCCCCCCCCCCCCCCCCCOP(=O)([O-])OC1CC[N+](C)(C)CC1 [Perifosine] + O=C(Oc1ccc([N+](=O)[O-])cc1)N1CCC(C(O)(c2ccc3c(c2)OCO3)c2ccc3c(c2)OCO3)CC1 [JZL184] (first compound 0.4 µM, partner dose 1 µM)",102,96.9,86.9,103,82.3,91.8,86.8,101,108,91.2
"Nc1ncn([C@H]2C[C@H](O)[C@@H](CO)O2)c(=O)n1 [decitabine] + O=C(Oc1ccc([N+](=O)[O-])cc1)N1CCC(C(O)(c2ccc3c(c2)OCO3)c2ccc3c(c2)OCO3)CC1 [JZL184] (first compound 0.1 µM, partner dose 1 µM)",93.2,103,75.8,62.3,75.9,102,73.8,84.8,98,74
"N#CC[C@H](C1CCCC1)n1cc(-c2ncnc3[nH]ccc23)cn1 [ruxolitinib] + O=C(Oc1ccc([N+](=O)[O-])cc1)N1CCC(C(O)(c2ccc3c(c2)OCO3)c2ccc3c(c2)OCO3)CC1 [JZL184] (first compound 1 µM, partner dose 1 µM)",91,93.8,105,95.1,102,111,98.1,87.1,88.7,112
"CC1(C)CCC(c2ccc(Cl)cc2)=C(CN2CCN(c3ccc(C(=O)NS(=O)(=O)c4ccc(N[C@H](CCN5CCOCC5)CSc5ccccc5)c(S(=O)(=O)C(F)(F)F)c4)cc3)CC2)C1 + Cc1cc(SCc2sc(-c3ccc(C(F)(F)F)c(F)c3)nc2C)ccc1OCC(=O)O [GW0742] (first compound 0.4 µM, partner dose 2 µM)",97,66.9,60.6,94,102,88.9,69.5,74.4,112,114
"CN(c1ncccc1CNc1nc(Nc2ccc3c(c2)CC(=O)N3)ncc1C(F)(F)F)S(C)(=O)=O + C/C(O)=C(\C#N)C(=O)Nc1cc(Br)ccc1Br [LFM-A13] (first compound 0.08 µM, partner dose 2 µM)",92.7,87.1,58.7,89.7,77.5,96.1,91.5,71.3,92.5,81.6
"CS(=O)(=O)c1ccc(C(=O)Nc2ccc(Cl)c(-c3ccccn3)c2)c(Cl)c1 [vismodegib] + C/C(O)=C(\C#N)C(=O)Nc1cc(Br)ccc1Br [LFM-A13] (first compound 1 µM, partner dose 2 µM)",107,104,82.9,104,135,101,85.8,111,90.2,98.7
"COc1ccc(C2=N[C@@H](c3ccc(Cl)cc3)[C@@H](c3ccc(Cl)cc3)N2C(=O)N2CCNC(=O)C2)c(OC(C)C)c1 [Nutlin-3] + C/C(O)=C(\C#N)C(=O)Nc1cc(Br)ccc1Br [LFM-A13] (first compound 0.1 µM, partner dose 2 µM)",102,94.2,100,96.9,82.9,97.9,82.9,85.3,74.8,73.1
"C[C@@H](Oc1cc(-c2cnn(C3CCNCC3)c2)cnc1N)c1c(Cl)ccc(F)c1Cl [Crizotinib] + Cc1cc(SCc2sc(-c3ccc(C(F)(F)F)c(F)c3)nc2C)ccc1OCC(=O)O [GW0742] (first compound 0.2 µM, partner dose 2 µM)",100,101,105,139,68.8,103,84.3,93.6,89.6,88.5
"CS(=O)(=O)c1ccc(C(=O)Nc2ccc(Cl)c(-c3ccccn3)c2)c(Cl)c1 [vismodegib] + O=C(Oc1ccc([N+](=O)[O-])cc1)N1CCC(C(O)(c2ccc3c(c2)OCO3)c2ccc3c(c2)OCO3)CC1 [JZL184] (first compound 1 µM, partner dose 1 µM)",107,95.4,98.8,91.6,109,106,97,81.7,115,104
"CCCCCCCCc1ccc(CCC(N)(CO)CO)cc1 [fingolimod] + O=C(Oc1ccc([N+](=O)[O-])cc1)N1CCC(C(O)(c2ccc3c(c2)OCO3)c2ccc3c(c2)OCO3)CC1 [JZL184] (first compound 2 µM, partner dose 1 µM)",95.1,103,87.1,67,97.6,98.1,97.2,88.8,71.8,85.1
"NC(=O)c1ccc(N(C(N)=O)c2c(F)cccc2F)nc1-c1ccc(F)cc1F + C/C(O)=C(\C#N)C(=O)Nc1cc(Br)ccc1Br [LFM-A13] (first compound 0.4 µM, partner dose 2 µM)",106,102,85.4,77.2,91.6,96.7,103,93.5,101,82.7
"CCN(CC)CCNC(=O)c1c(C)[nH]c(/C=C2\C(=O)Nc3ccc(F)cc32)c1C [sunitinib] + Cc1cc(SCc2sc(-c3ccc(C(F)(F)F)c(F)c3)nc2C)ccc1OCC(=O)O [GW0742] (first compound 0.4 µM, partner dose 2 µM)",109,78.3,116,134,86.5,117,62.7,117,87.5,109
